This is one part of the list. Single values are uncertain, as repeats are few or missing.
Key:
Experiment in all cases: cell count relative to DMSO control; melanoma cells; higher = more viable cells
Conditions in all cases: library dose: low library concentration; 72 h
MZ2-MEL = test system: MZ2-MEL
MeWo = test system: MeWo
RPMI7951 = test system: RPMI7951
RVH-421 = test system: RVH-421
SkMel28 = test system: SkMel28
SkMel2 = test system: SkMel2
SkMel30 = test system: SkMel30
SkMel5 = test system: SkMel5
UACC257 = test system: UACC257
UACC62 = test system: UACC62
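Also: cell number obtained by counting DAPI-stained nuclei in high-throughput microscope images with image analysis software, screen run in 1,536-well plates.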

SMILES	cell count (MZ2-MEL)	cell count (MeWo)	cell count (RPMI7951)	cell count (RVH-421)	cell count (SkMel28)	cell count (SkMel2)	cell count (SkMel30)	cell count (SkMel5)	cell count (UACC257)	cell count (UACC62)
Nc1nc(F)nc2c1ncn2[C@@H]1O[C@H](CO)[C@@H](O)[C@@H]1O [fludarabine] + c1cc(-c2cnn3cc(-c4ccc(OCCN5CCCCC5)cc4)cnc23)ccn1 [Dorsomorphin] (first compound 0.2 µM, partner dose 0.4 µM)	106%	22.5%	82.2%	108%	67.6%	3.37%	12.7%	49.8%	78.5%	97.7%
Nc1nc(F)nc2c1ncn2[C@@H]1O[C@H](CO)[C@@H](O)[C@@H]1O [fludarabine] + N#Cc1c(O)c2c(-c3ccc(-c4ccccc4O)cc3)csc2[nH]c1=O [A769662] (first compound 0.2 µM, partner dose 2 µM)	104%	33.8%	101%	78.8%	56.8%	5%	14.3%	63%	79.6%	76.9%
Nc1ncn([C@H]2C[C@H](O)[C@@H](CO)O2)c(=O)n1 [decitabine] + Cn1cc(/C=C2\C(=O)Nc3cccnc32)c2ccccc21 [GW441756] (first compound 0.1 µM, partner dose 0.4 µM)	83.3%	110%	70.3%	72.7%	83.7%	109%	93.7%	77.9%	86%	61.1%
CC(=O)O[C@@]12CO[C@@H]1C[C@H](O)[C@@]1(C)C(=O)[C@H](O)C3=C(C)[C@@H](OC(=O)[C@H](O)[C@@H](NC(=O)OC(C)(C)C)c4ccccc4)C[C@@](O)([C@@H](OC(=O)c4ccccc4)[C@H]21)C3(C)C [Docetaxel] + CCN(CC)CCCCNc1ncc2cc(-c3cc(OC)cc(OC)c3)c(NC(=O)NC(C)(C)C)nc2n1 [PD173074] (first compound 0.0001 µM, partner dose 0.1 µM)	48.9%	49.3%	39.8%	57.8%	48.2%	40.3%	44.3%	77.6%	58.3%	50%
Nc1ccn([C@@H]2O[C@H](CO)[C@@H](O)C2(F)F)c(=O)n1 [gemcitabine] + COc1cc(N2CCC(N3CCN(C)CC3)CC2)ccc1Nc1ncc(Cl)c(Nc2ccccc2S(=O)(=O)C(C)C)n1 [NVP-TAE684] (first compound 0.0004 µM, partner dose 0.08 µM)	99.6%	89.4%	78.8%	73.2%	102%	91.2%	112%	96.7%	86%	89.8%
Nc1nc(F)nc2c1ncn2[C@@H]1O[C@H](CO)[C@@H](O)[C@@H]1O [fludarabine] + Oc1cc(-c2nc(-c3ccccc3)[nH]c2-c2ccncc2)ccc1Cl [L779450] (first compound 0.2 µM, partner dose 0.2 µM)	74.8%	31.5%	71.3%	92.1%	76.5%	5.66%	13.8%	51.4%	67.9%	73.4%
CC(=O)c1c(C)c2cnc(Nc3ccc(N4CCNCC4)cn3)nc2n(C2CCCC2)c1=O [palbociclib] + OCCn1cc(-c2cnc3nnn(Cc4ccc5ncccc5c4)c3n2)cn1 [PF04217903] (first compound 0.04 µM, partner dose 1 µM)	87.3%	80.7%	74.4%	85.6%	88.4%	82.6%	80.3%	79.7%	82.2%	88%
CC(=O)c1c(C)c2cnc(Nc3ccc(N4CCNCC4)cn3)nc2n(C2CCCC2)c1=O [palbociclib] + Cn1cncc1[C@@](N)(c1ccc(Cl)cc1)c1ccc2c(c1)c(-c1cccc(Cl)c1)cc(=O)n2C [tipifarnib] (first compound 0.04 µM, partner dose 0.01 µM)	71.4%	68.1%	68.5%	60.5%	69.1%	67.4%	63.5%	68.4%	67.5%	67.8%
Nc1nc(F)nc2c1ncn2[C@@H]1O[C@H](CO)[C@@H](O)[C@@H]1O [fludarabine] + Cc1cc([N+](=O)[O-])ccc1NS(=O)(=O)c1cc(Cl)ccc1Cl [FH535] (first compound 0.2 µM, partner dose 1 µM)	99.8%	37.2%	95.6%	98.5%	58.1%	4.28%	12.3%	67.8%	97.2%	76.9%
CC(=O)O[C@@]12CO[C@@H]1C[C@H](O)[C@@]1(C)C(=O)[C@H](O)C3=C(C)[C@@H](OC(=O)[C@H](O)[C@@H](NC(=O)OC(C)(C)C)c4ccccc4)C[C@@](O)([C@@H](OC(=O)c4ccccc4)[C@H]21)C3(C)C [Docetaxel] + O=C(Nc1ccccc1)c1cc([N+](=O)[O-])ccc1Cl [GW9662] (first compound 0.0001 µM, partner dose 2 µM)	45.8%	48.7%	35.9%	62.7%	50.6%	40.7%	41.6%	83%	54.9%	40.5%
CC(=O)O[C@@]12CO[C@@H]1C[C@H](O)[C@@]1(C)C(=O)[C@H](O)C3=C(C)[C@@H](OC(=O)[C@H](O)[C@@H](NC(=O)OC(C)(C)C)c4ccccc4)C[C@@](O)([C@@H](OC(=O)c4ccccc4)[C@H]21)C3(C)C [Docetaxel] + CC1(C)NC(=O)N(c2ccc([N+](=O)[O-])c(C(F)(F)F)c2)C1=O [nilutamide] (first compound 0.0001 µM, partner dose 1 µM)	40.8%	49.2%	41.2%	75.4%	43.5%	40.1%	30.4%	74.9%	48.9%	43.9%
CC(=O)O[C@@]12CO[C@@H]1C[C@H](O)[C@@]1(C)C(=O)[C@H](O)C3=C(C)[C@@H](OC(=O)[C@H](O)[C@@H](NC(=O)OC(C)(C)C)c4ccccc4)C[C@@](O)([C@@H](OC(=O)c4ccccc4)[C@H]21)C3(C)C [Docetaxel] + COc1cc(Nc2ncc(F)c(Nc3ccc4c(n3)NC(=O)C(C)(C)O4)n2)cc(OC)c1OC [Tamatinib] (first compound 0.0001 µM, partner dose 0.4 µM)	37.3%	35.6%	22.4%	69.9%	37%	36.2%	29.1%	73.6%	34.5%	47.2%
Nc1ncn([C@H]2C[C@H](O)[C@@H](CO)O2)c(=O)n1 [decitabine] + CN(NC(=O)CC(=O)NN(C)C(=S)c1ccccc1)C(=S)c1ccccc1 [STA4783] (first compound 0.1 µM, partner dose 0.006 µM)	76.1%	103%	71.9%	93.1%	17.1%	102%	104%	83.6%	106%	77.6%
CC(=O)c1c(C)c2cnc(Nc3ccc(N4CCNCC4)cn3)nc2n(C2CCCC2)c1=O [palbociclib] + Oc1cc(-c2nc(-c3ccccc3)[nH]c2-c2ccncc2)ccc1Cl [L779450] (first compound 0.04 µM, partner dose 0.2 µM)	64.9%	86.5%	66.2%	98.2%	62.2%	78.9%	78.8%	71.3%	83.2%	65.1%
Nc1nc(F)nc2c1ncn2[C@@H]1O[C@H](CO)[C@@H](O)[C@@H]1O [fludarabine] + Cc1ccc(NC(=O)c2cccc(N(C)C)c2)cc1NC(=O)c1ccc(O)cc1 [ZM336372] (first compound 0.2 µM, partner dose 2 µM)	82.5%	29.3%	75.8%	94.8%	78.9%	6.34%	10.5%	59.3%	87.7%	119%
CC(=O)O[C@@]12CO[C@@H]1C[C@H](O)[C@@]1(C)C(=O)[C@H](O)C3=C(C)[C@@H](OC(=O)[C@H](O)[C@@H](NC(=O)OC(C)(C)C)c4ccccc4)C[C@@](O)([C@@H](OC(=O)c4ccccc4)[C@H]21)C3(C)C [Docetaxel] + CN(NC(=O)CC(=O)NN(C)C(=S)c1ccccc1)C(=S)c1ccccc1 [STA4783] (first compound 0.0001 µM, partner dose 0.006 µM)	54.3%	35.6%	38.9%	75.8%	43%	41.7%	25.4%	65.9%	35.7%	55.4%
CC(=O)O[C@@]12CO[C@@H]1C[C@H](O)[C@@]1(C)C(=O)[C@H](O)C3=C(C)[C@@H](OC(=O)[C@H](O)[C@@H](NC(=O)OC(C)(C)C)c4ccccc4)C[C@@](O)([C@@H](OC(=O)c4ccccc4)[C@H]21)C3(C)C [Docetaxel] + N#Cc1c(O)c2c(-c3ccc(-c4ccccc4O)cc3)csc2[nH]c1=O [A769662] (first compound 0.0001 µM, partner dose 2 µM)	49.7%	39.8%	48.2%	72.1%	44.2%	42.6%	37.3%	72%	45.4%	41.9%
CC(=O)O[C@@]12CO[C@@H]1C[C@H](O)[C@@]1(C)C(=O)[C@H](O)C3=C(C)[C@@H](OC(=O)[C@H](O)[C@@H](NC(=O)OC(C)(C)C)c4ccccc4)C[C@@](O)([C@@H](OC(=O)c4ccccc4)[C@H]21)C3(C)C [Docetaxel] + COC(=O)c1sccc1S(=O)(=O)Nc1ccc(Nc2ccccc2)cc1OC [GSK0660] (first compound 0.0001 µM, partner dose 1 µM)	50.5%	44.2%	41%	47.1%	46.6%	42%	47.1%	77.4%	58.3%	48.5%
CC(=O)O[C@@]12CO[C@@H]1C[C@H](O)[C@@]1(C)C(=O)[C@H](O)C3=C(C)[C@@H](OC(=O)[C@H](O)[C@@H](NC(=O)OC(C)(C)C)c4ccccc4)C[C@@](O)([C@@H](OC(=O)c4ccccc4)[C@H]21)C3(C)C [Docetaxel] + CC(C)CCN1c2nc(Nc3cc(F)c(O)c(F)c3)ncc2N(C)C(=O)C1C [BID1870] (first compound 0.0001 µM, partner dose 0.2 µM)	50.7%	39.6%	35.6%	85.4%	46.5%	40.7%	26.3%	73.8%	56.4%	41.3%
